Several values for one entry are separate records, joined by “and”; a condition that tells them apart may be missing. Identical values can stand only once. In all, about 400,000 compounds went through this assay and about 2,200 (0.55%) were called active. Not shown: some 1% with an inconclusive outcome. Calls follow the shape of the dose curve; as a rule, active = well fitted inhibition curve with a large enough effect; inconclusive = small, poorly fitted or top-dose-only effect, or another doubt; inactive = no such curve, though single readings can be large or run the other way. This is a selection; strong and weak results do not stand in their true shares.

Data on 36 molecules can be found in PubChem BioAssay AID588579 (National Center for Advancing Translational Sciences (NCATS), 2011).
% is scaled to controls: 0 for no effect and ±100 for the full control effect; potency is read from the fitted curve at half-maximal effect.

For the assay, the target named is DNA polymerase kappa (Homo sapiens) (UniProt Q9UBT6). Put plainly: qHTS for Inhibitors of Polymerase Kappa. Conditions: purified Pol kappa, fluorescent DNA synthesis assay, 10 min; series mostly up to 107 µM; activity, negative = inhibition: at the top concentration. Put shortly: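 Pol kappa 10 nM + cpd, 15 min RT; start w/ substrate 50 nM final; fluorescence kinetic read, 0 and 10 min. Neg ctrl: buffer, no enzyme.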
Sequence of UniProt Q9UBT6 (Q9UBT6 whole entry, looked up): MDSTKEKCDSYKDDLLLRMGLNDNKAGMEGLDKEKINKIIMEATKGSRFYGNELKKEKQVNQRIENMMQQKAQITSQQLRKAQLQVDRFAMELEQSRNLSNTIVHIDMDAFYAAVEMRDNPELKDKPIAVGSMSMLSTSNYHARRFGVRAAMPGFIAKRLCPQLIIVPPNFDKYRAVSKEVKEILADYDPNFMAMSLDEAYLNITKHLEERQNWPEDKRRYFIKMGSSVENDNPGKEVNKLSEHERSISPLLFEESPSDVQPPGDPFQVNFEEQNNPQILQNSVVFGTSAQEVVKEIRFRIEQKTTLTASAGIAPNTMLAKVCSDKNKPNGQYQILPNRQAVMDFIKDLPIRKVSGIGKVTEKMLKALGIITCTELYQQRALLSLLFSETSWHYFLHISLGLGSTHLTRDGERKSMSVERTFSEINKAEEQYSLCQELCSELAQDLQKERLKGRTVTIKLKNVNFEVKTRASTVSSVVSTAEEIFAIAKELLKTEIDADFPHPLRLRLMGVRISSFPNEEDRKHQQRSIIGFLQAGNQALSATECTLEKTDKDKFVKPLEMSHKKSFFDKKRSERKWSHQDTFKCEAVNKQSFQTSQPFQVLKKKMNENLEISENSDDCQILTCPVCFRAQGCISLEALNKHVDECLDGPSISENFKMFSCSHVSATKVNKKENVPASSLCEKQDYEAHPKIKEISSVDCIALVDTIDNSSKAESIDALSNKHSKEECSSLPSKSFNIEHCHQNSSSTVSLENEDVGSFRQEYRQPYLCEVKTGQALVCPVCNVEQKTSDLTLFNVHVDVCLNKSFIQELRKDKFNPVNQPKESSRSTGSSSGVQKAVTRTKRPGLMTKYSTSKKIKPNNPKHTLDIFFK
On the technique in general: qHTS replaces the single test concentration by a dilution series.
In the case of `COc1cccc(N2CCN(C(=O)c3cc4c(s3)-c3ccccc3OC4)CC2)c1`, the “activity, negative = inhibition” value is inactive: 0.201%.

For `O=C(C[C@H]1C/C=C\CC[C@H](Cc2ccc(F)cc2)C(=O)O[C@@H](c2ccccc2)CNC1=O)N[C@@H](CO)Cc1ccccc1`, the “activity, negative = inhibition” value is inactive: -6.44%.

For `CCCCCCCCCCCCCCC[C@@H](O)[C@@H](N)CO`, the Potency result was “inactive”.

Consider `CC[C@@]1(O)C[C@H](O[C@H]2C[C@@H](N(C)C)[C@@H](O[C@H]3C[C@@H](O)[C@@H](O[C@H]4CCC(=O)[C@@H](C)O4)[C@@H](C)O3)[C@@H](C)O2)c2c(cc3c(c2O)C(=O)c2c(O)cccc2C3=O)[C@H]1C(=O)OC`, for which the Potency was active: 4.47 µM.

As to `CCCCCCNC(=O)c1cc(-c2ccco2)nc2ccccc12`, the Potency is active: 50.1 µM.

`O=[N+]([O-])c1cc(/C=N/Nc2nc3ccccc3[nH]2)c(O)cc1O`: the Potency was active: 39.8 µM.

Consider `CCN(CC)Cc1cc(O)c(CN(CC)CC)cc1O`, for which the Potency is active: 8.91 µM.

In the case of `O=C(O)CC(C(=O)O)N1C(=O)/C(=C/c2ccc(-c3nc4ccccc4s3)o2)SC1=S` (stereo unspecified), the Potency is active: 4.47 µM.

As to `O=c1ccc(-c2ccccc2)nn1Cc1ccc(F)cc1Cl`, the “activity, negative = inhibition” value was inactive: -1.25%.

Regarding `Nc1ccc(S(=O)(=O)Nc2ccc(Cl)nn2)cc1`, the Potency result is “inactive”.

For `O=C1CCN(Cc2ccccc2)CCN1CCSc1ccccc1`, the “activity, negative = inhibition” value was inactive: 4.42%.

In the case of `Cc1ccncc1C(=O)O`, the “activity, negative = inhibition” value was inactive: 14.5% [at 60.1 µM].

Consider `O=C(C[C@H]1C/C=C\CC[C@H](Cc2ccc(F)cc2)C(=O)O[C@H](c2ccccc2)CNC1=O)N[C@H](CO)Cc1ccccc1`, for which the “activity, negative = inhibition” value was inactive: -17.8%.

As to `CN(C)CCC[C@@]1(c2ccc(F)cc2)OCc2cc(C#N)ccc21`, the Potency result was “inactive”.

Consider `CCCC1OC2C[C@@H]3[C@H]4CCC5=CC(=O)C=C[C@]5(C)[C@H]4C(O)C[C@]3(C)[C@]2(C(=O)CO)O1` (stereo partly specified), for which the “activity, negative = inhibition” value was inactive: -2.02%.

`CC(=O)Nc1cc(NC(C)=O)cc(-c2nc3ccccc3[nH]2)c1`: the “activity, negative = inhibition” value was inactive: 2.42%.

For `CCOC(=O)c1c[nH]c2nc(C)ccc2c1=O`, the “activity, negative = inhibition” value was inactive: 7.58%.

`Nc1nc2[nH]cc(CCc3ccc(C(=O)NC(CCC(=O)O)C(=O)O)cc3)c2c(=O)[nH]1` (stereo unspecified): the activity, negative = inhibition is inactive: 0.451% [at 19.4 µM].

Take `O=C(O)c1ccc2c3n(nc2c1)-c1ccc(Cl)cc1CO3`: the Potency was active: 31.6 µM.

With `CCN(CC)Cc1cc2[nH]c3c4ccc(Cl)cc4ncc3c2cc1OC`, the “activity, negative = inhibition” value is inactive: -20.2%.

Turning to `Nc1nc(=S)c2ncn([C@H]3O[C@@H](CO)[C@@H](O)[C@@H]3O)c2[nH]1`, the activity, negative = inhibition was inactive: -8.45% [at 12 µM].

As for `CC1CCc2nc3ccc(S(=O)(=O)N4CCC(C(=O)NCc5ccccc5Cl)CC4)cc3c(C(=O)O)c2C1` (stereo unspecified), the “activity, negative = inhibition” value is inactive: -39.4%.

On to `O=C(NCc1ccco1)c1cc2ccc(O)cc2oc1=O`, for which the Potency is active: 79.4 µM.

On to `OC[C@H]1OC(O)[C@@H](O)[C@@H](O)[C@@H]1O` (stereo partly specified), for which the Potency result is “inactive”.

`CC1=C(\C=C/C(C)=C/C=C\C(C)=C\C(=O)O)C(C)(C)CCC1`: the activity, negative = inhibition is inactive: -6.52% [at 12 µM] [middle of 5 runs].

Turning to `Cc1ccc(-c2csc3ncn(CC#N)c(=O)c23)cc1C`, the Potency was active: 79.4 µM.

As to `CCOC(=O)c1[nH]c2c(c1C)C(=O)CC(c1ccco1)C2` (stereo unspecified), the Potency was active: 56.2 µM.

Consider `CCc1cccc(NS(=O)(=O)c2c(C)[nH]c(=O)[nH]c2=O)c1`, for which the “activity, negative = inhibition” value was inactive: -4.55% [at 60.1 µM].

For `OCCCc1ccccc1`, the “activity, negative = inhibition” value is inactive: 16.2% [at 60.1 µM].

Take `NCCS(=O)(=O)O`: the Potency result is “inactive”.

Consider `O=c1c(O)cccc2cc(O)c(O)c(O)c12`, for which the Potency is active: 794 nM and active: 891 nM.

On to `COc1ccc(Cl)cc1C(=O)Nn1cnc2ccccc2c1=O`, for which the “activity, negative = inhibition” value was inactive: -1.62%.

Consider `CN(C)C(=O)NC1CCCCCCC1`, for which the “activity, negative = inhibition” value is inactive: 11.6% [at 60.1 µM].

Consider `OC[C@@H]1OC(O)[C@@H](O)[C@H](O)[C@H]1O` (stereo partly specified), for which the “activity, negative = inhibition” value is inactive: 15.4% [at 60.1 µM].

Turning to `CCOC(=O)[C@@H]1[C@H]2COc3cc(OC)ccc3[C@H]2N2C(=O)N(c3cccc(F)c3)C(=O)[C@@]12C`, the “activity, negative = inhibition” value is inactive: -8.54%.

On to `CCN(CC)CCNC(=O)c1cc(S(C)(=O)=O)ccc1OC`, for which the Potency entry was “inactive”.
